# The supplement of paper PMC8728848
# The list shows a part of the results.
# How the values were obtained:
# Experiment in all cases: glycan array binding signal (z-score within array); higher = stronger binding
# Settings in all cases: glycan notation: IUPAC condensed, linker removed
# [1] = biological target: Fuc(a1-2)Gal(b1-4)GlcNAc(b1-3)Gal(b1-4)GlcNAc(b1-2)Man(a1-3)[Fuc(a1-2)Gal(b1-4)GlcNAc(b1-3)Gal(b1-4)GlcNAc(b1-2)Man(a1-6)]Man(b1-4)GlcNAc(b1-4)GlcNAc
# Outline: (§1)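 The Consortium for Functional Glycomics database supplied 3228 glycan arrays, of which those lacking an available protein sequence were dropped. The binding signal, a within-array Z-score, was averaged across arrays of the same protein sequence and across linkers. Negative scores can be read as non-binding.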
# [2] = biological target: Fuc(a1-2)Gal(b1-4)GlcNAc(b1-3)Gal(b1-4)GlcNAc(b1-3)Gal(b1-4)GlcNAc
# Outline: as §1
# [3] = biological target: Fuc(a1-2)Gal(b1-4)GlcNAc(b1-3)GalNAc
# Outline: as §1
# [4] = biological target: Fuc(a1-2)Gal(b1-4)GlcNAc(b1-3)[Fuc(a1-2)Gal(b1-4)GlcNAc(b1-6)]GalNAc
# Outline: as §1
# [5] = biological target: Fuc(a1-2)Gal(b1-4)GlcNAc(b1-3)[Fuc(a1-3)[Gal(b1-4)]GlcNAc(b1-6)]Gal(b1-4)Glc
# Outline: as §1
# [6] = biological target: Fuc(a1-2)Gal(b1-4)GlcNAc(b1-6)GalNAc
# Outline: as §1
# [7] = biological target: Fuc(a1-2)Gal(b1-4)GlcNAc6S
# Outline: as §1
# [8] = biological target: Fuc(a1-2)Gal(b1-4)[Fuc(a1-3)]GlcNAc
# Outline: as §1
# [9] = biological target: Fuc(a1-2)Gal(b1-4)[Fuc(a1-3)]GlcNAc(b1-2)Man(a1-3)[Fuc(a1-2)Gal(b1-4)[Fuc(a1-3)]GlcNAc(b1-2)Man(a1-6)]Man(b1-4)GlcNAc(b1-4)[Fuc(a1-6)]GlcNAc
# Outline: as §1
# [10] = biological target: Fuc(a1-2)Gal(b1-4)[Fuc(a1-3)]GlcNAc(b1-2)[Fuc(a1-2)Gal(b1-4)[Fuc(a1-3)]GlcNAc(b1-4)]Man(a1-3)[Fuc(a1-2)Gal(b1-4)[Fuc(a1-3)]GlcNAc(b1-2)Man(a1-6)]Man(b1-4)GlcNAc(b1-4)GlcNAc
# Outline: as §1
# [11] = biological target: Fuc(a1-2)Gal(b1-4)[Fuc(a1-3)]GlcNAc(b1-3)Gal(b1-4)[Fuc(a1-3)]GlcNAc
# Outline: as §1
# [12] = biological target: Fuc(a1-2)Gal(b1-4)[Fuc(a1-3)]GlcNAc(b1-3)Gal(b1-4)[Fuc(a1-3)]GlcNAc(b1-3)Gal(b1-4)[Fuc(a1-3)]GlcNAc
# Outline: as §1
# [13] = biological target: Fuc(a1-2)Gal(b1-4)[Fuc(a1-3)]GlcNAc(b1-3)GalNAc
# Outline: as §1
# [14] = biological target: Fuc(a1-2)Gal(b1-4)[Fuc(a1-3)]GlcNAc(b1-3)[Neu5Ac(a2-6)Gal(b1-4)GlcNAc(b1-6)]Gal(b1-4)Glc
# Outline: as §1
# [15] = biological target: Fuc(a1-2)Gal3S(b1-4)GlcNAc
# Outline: as §1
# [16] = biological target: Fuc(a1-2)Gal6S(b1-3)GlcNAc
# Outline: as §1
# [17] = biological target: Fuc(a1-2)Gal6S(b1-3)GlcNAc6S
# Outline: as §1
# Fuc(a1-2)Gal6S(b1-4)Glc = biological target: Fuc(a1-2)Gal6S(b1-4)Glc
# Outline: as §1
# [18] = biological target: Fuc(a1-2)Gal6S(b1-4)Glc6S
# Outline: as §1
# Fuc(a1-2)[Gal(a1-3)]Gal = biological target: Fuc(a1-2)[Gal(a1-3)]Gal
# Outline: as §1
# [19] = biological target: Fuc(a1-2)[Gal(a1-3)]Gal(b1-3)GalNAc
# Outline: as §1
# [20] = biological target: Fuc(a1-2)[Gal(a1-3)]Gal(b1-3)GalNAc(b1-3)Gal(a1-4)Gal(b1-4)Glc
# Outline: as §1
# [21] = biological target: Fuc(a1-2)[Gal(a1-3)]Gal(b1-3)GlcNAc
# Outline: as §1
# [22] = biological target: Fuc(a1-2)[Gal(a1-3)]Gal(b1-3)GlcNAc(b1-2)Man(a1-3)[Fuc(a1-2)[Gal(a1-3)]Gal(b1-3)GlcNAc(b1-2)Man(a1-6)]Man(b1-4)GlcNAc(b1-4)GlcNAc
# Outline: as §1
# [23] = biological target: Fuc(a1-2)[Gal(a1-3)]Gal(b1-3)GlcNAc(b1-2)Man(a1-3)[Fuc(a1-2)[Gal(a1-3)]Gal(b1-3)GlcNAc(b1-2)Man(a1-6)]Man(b1-4)GlcNAc(b1-4)[Fuc(a1-6)]GlcNAc
# Outline: as §1
# [24] = biological target: Fuc(a1-2)[Gal(a1-3)]Gal(b1-3)GlcNAc(b1-3)GalNAc
# Outline: as §1
# [25] = biological target: Fuc(a1-2)[Gal(a1-3)]Gal(b1-3)GlcNAc(b1-6)GalNAc
# Outline: as §1
# [26] = biological target: Fuc(a1-2)[Gal(a1-3)]Gal(b1-4)Glc
# Outline: as §1
# [27] = biological target: Fuc(a1-2)[Gal(a1-3)]Gal(b1-4)GlcNAc
# Outline: as §1
# [28] = biological target: Fuc(a1-2)[Gal(a1-3)]Gal(b1-4)GlcNAc(b1-2)Man
# Outline: as §1
# [29] = biological target: Fuc(a1-2)[Gal(a1-3)]Gal(b1-4)GlcNAc(b1-2)Man(a1-3)[Fuc(a1-2)[Gal(a1-3)]Gal(b1-4)GlcNAc(b1-2)Man(a1-6)]Man(b1-4)GlcNAc(b1-4)GlcNAc
# Outline: as §1
# [30] = biological target: Fuc(a1-2)[Gal(a1-3)]Gal(b1-4)GlcNAc(b1-2)Man(a1-3)[Fuc(a1-2)[Gal(a1-3)]Gal(b1-4)GlcNAc(b1-2)Man(a1-6)]Man(b1-4)GlcNAc(b1-4)[Fuc(a1-6)]GlcNAc
# Outline: as §1
# [31] = biological target: Fuc(a1-2)[Gal(a1-3)]Gal(b1-4)GlcNAc(b1-3)GalNAc
# Outline: as §1
# [32] = biological target: Fuc(a1-2)[Gal(a1-3)]Gal(b1-4)GlcNAc(b1-3)[Fuc(a1-2)[Gal(a1-3)]Gal(b1-4)GlcNAc(b1-6)]GalNAc
# Outline: as §1
# [33] = biological target: Fuc(a1-2)[Gal(a1-3)]Gal(b1-4)GlcNAc(b1-6)GalNAc
# Outline: as §1
# [34] = biological target: Fuc(a1-2)[Gal(a1-3)]Gal(b1-4)[Fuc(a1-3)]Glc
# Outline: as §1
# [35] = biological target: Fuc(a1-2)[Gal(a1-3)]Gal(b1-4)[Fuc(a1-3)]GlcNAc
# Outline: as §1
# [36] = biological target: Fuc(a1-2)[Gal(a1-3)]Gal(b1-4)[Fuc(a1-3)]GlcNAc(b1-3)GalNAc
# Outline: as §1
# [37] = biological target: Fuc(a1-2)[Gal(a1-4)]Gal(b1-4)GlcNAc
# Outline: as §1
# [38] = biological target: Fuc(a1-2)[GalNAc(a1-3)]Gal
# Outline: as §1
# [39] = biological target: Fuc(a1-2)[GalNAc(a1-3)]Gal(b1-3)GalNAc(a1-3)[Fuc(a1-2)]Gal(b1-4)GlcNAc
# Outline: as §1
# [40] = biological target: Fuc(a1-2)[GalNAc(a1-3)]Gal(b1-3)GalNAc(b1-3)Gal(a1-4)Gal(b1-4)Glc
# Outline: as §1
# [41] = biological target: Fuc(a1-2)[GalNAc(a1-3)]Gal(b1-3)GlcNAc
# Outline: as §1
# [42] = biological target: Fuc(a1-2)[GalNAc(a1-3)]Gal(b1-3)GlcNAc(b1-2)Man(a1-3)[Fuc(a1-2)[GalNAc(a1-3)]Gal(b1-3)GlcNAc(b1-2)Man(a1-6)]Man(b1-4)GlcNAc(b1-4)GlcNAc
# Outline: as §1
# [43] = biological target: Fuc(a1-2)[GalNAc(a1-3)]Gal(b1-3)GlcNAc(b1-2)Man(a1-3)[Fuc(a1-2)[GalNAc(a1-3)]Gal(b1-3)GlcNAc(b1-2)Man(a1-6)]Man(b1-4)GlcNAc(b1-4)[Fuc(a1-6)]GlcNAc
# Outline: as §1
binder,measurement,setting,value
"HA-11100 (Pseudomonas aeruginosa), Q02G51_PSEAB (protein) QFNPNEIKISQQGKTTLIDQSTQRAIINWKGFDVSADEAVRFNQPGVTSSTLNRVTAGQESVIAGRISAPGQVIIYNSNGVVFSGSAKVDVGSLITTTANISDEHFRQGKLIFDQPGNPDARIVNDGSISVAEKGLAAFVAPSVANNGVINARLGTVAMAAGNAATIDLYG",glycan array binding signal (z-score),[1],0.521
same,glycan array binding signal (z-score),[2],-0.353
same,glycan array binding signal (z-score),[3],0.035
same,glycan array binding signal (z-score),[4],-0.358
same,glycan array binding signal (z-score),[5],-0.349
same,glycan array binding signal (z-score),[6],-0.607
same,glycan array binding signal (z-score),[7],-0.279
same,glycan array binding signal (z-score),[8],-0.134
same,glycan array binding signal (z-score),[9],0.05
same,glycan array binding signal (z-score),[10],0.232
same,glycan array binding signal (z-score),[11],-0.345
same,glycan array binding signal (z-score),[12],-0.73
same,glycan array binding signal (z-score),[13],-0.111
same,glycan array binding signal (z-score),[14],-0.211
same,glycan array binding signal (z-score),[15],-0.046
same,glycan array binding signal (z-score),[16],-0.359
same,glycan array binding signal (z-score),[17],-0.046
same,glycan array binding signal (z-score),Fuc(a1-2)Gal6S(b1-4)Glc,-0.493
same,glycan array binding signal (z-score),[18],-0.212
same,glycan array binding signal (z-score),Fuc(a1-2)[Gal(a1-3)]Gal,-0.32
same,glycan array binding signal (z-score),[19],-0.312
same,glycan array binding signal (z-score),[20],-0.465
same,glycan array binding signal (z-score),[21],-0.203
same,glycan array binding signal (z-score),[22],7.81
same,glycan array binding signal (z-score),[23],-0.083
same,glycan array binding signal (z-score),[24],-0.638
same,glycan array binding signal (z-score),[25],-0.435
same,glycan array binding signal (z-score),[26],-0.312
same,glycan array binding signal (z-score),[27],-0.128
same,glycan array binding signal (z-score),[28],0.173
same,glycan array binding signal (z-score),[29],-0.222
same,glycan array binding signal (z-score),[30],-0.071
same,glycan array binding signal (z-score),[31],-0.42
same,glycan array binding signal (z-score),[32],-0.436
same,glycan array binding signal (z-score),[33],-0.549
same,glycan array binding signal (z-score),[34],0.052
same,glycan array binding signal (z-score),[35],-0.244
same,glycan array binding signal (z-score),[36],-0.169
same,glycan array binding signal (z-score),[37],-0.083
same,glycan array binding signal (z-score),[38],-0.447
same,glycan array binding signal (z-score),[39],-0.463
same,glycan array binding signal (z-score),[40],0.044
same,glycan array binding signal (z-score),[41],-0.155
same,glycan array binding signal (z-score),[42],-0.171
same,glycan array binding signal (z-score),[43],-0.112
